# For some assays here: Shown are results outside the selection of hits, which stands elsewhere. Results filed as inconclusive are left out. The list shows a part of the results, in another mix than the full data. A structure can be active in one record and inactive in another. Calls of active or inactive are those of the source. The calls were made as follows, unless noted: active = hit-call score of the fitted dose curve at least 0.9, where 1 is the maximum; inactive = score below 0.9.
# Legend:
# [1] = read-out: serum amyloid A (SAA), SAA1 (gene 6288); assay: BSK_CASM3C_SAA: BioMAP Diversity Plus: CASM3C Assay for serum amyloid A (SAA) Biomarker Activity (AID 2283049); settings: actives raise or lower the signal; primary human coronary artery smooth muscle cells
# [2] = CEETOX_H295R_PROG: CeeTox H295R High-throughput Steroidogenesis Assay for Progesterone (PROG) (AID 2283442); settings: actives raise or lower the signal
# Summary of the method: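 Progesterone read-out: HPLC-MS/MS on MTBE extracts of conditioned medium after 48 h chemical exposure of forskolin-primed (10 uM, 48 h) H295R cells. Gain or loss of signal was fitted relative to DMSO baseline.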
# [3] = target: Nucleoli Translocation, AR (gene 367) (UniProt P10275); assay: UPITT_HCI_U2OS_AR_TIF2_Nucleoli_Agonist: University of Pittsburgh U2OS Androgen Receptor-Transcriptional Intermediary Factor 2 (AR-TIF2) Agonism High Content Imaging Assay for Nucleoli Translocation (AID 2283998; active = hit-call score of the fitted dose curve at least 0.9, where 1 is the maximum)
# Summary of the method: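 RFP-AR / GFP-TIF2 cells; cpds diluted in serum-free medium; single-point screen 20 uM final (0.2% DMSO), actives confirmed in triplicate; conc-response 0.195–50 uM final (0.5% DMSO). Readout: nucleolar red fluorescence, positive direction vs DMSO.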
# [4] = read-out: Low-density lipoprotein receptor (LDLR), LDLR (gene 3949); assay: BSK_CASM3C_LDLR: BioMAP Diversity Plus: CASM3C Assay for Low-density lipoprotein receptor (LDLR) Biomarker Activity (AID 2283045); settings: actives raise or lower the signal; primary human coronary artery smooth muscle cells;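 also: LDLR protein level on the cell surface quantified by ELISA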
# [5] = read-out: Monokine induced gamma interferon (MIG), CXCL9 (gene 4283); assay: BSK_hDFCGF_MIG: BioMAP Diversity Plus: hDFCGF Assay for Monokine induced gamma interferon (MIG) Biomarker Activity (AID 2283063); settings: actives raise or lower the signal; primary human foreskin fibroblasts
# Summary of the method: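 Fibroblasts (human foreskin, primary) dosed, 24 h, MIG by ELISA; fit bidirectional vs DMSO.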
# [6] = read-out: Matrix Metallopeptidase 1 (MMP1), MMP1 (gene 4312); assay: BSK_hDFCGF_MMP1: BioMAP Diversity Plus: hDFCGF Assay for Matrix Metallopeptidase 1 (MMP1) Biomarker Activity (AID 2283064); settings: actives raise or lower the signal; primary human foreskin fibroblasts
# Summary of the method: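 Primary human foreskin fibroblasts exposed to chemicals for 24 h; MMP1 measured by ELISA. Cytotoxicity tracked by SRB staining in parallel cultures; bidirectional fit relative to DMSO.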
# [7] = BSK_SAg_Proliferation: Cell Proliferation Assessment in the BioMAP Diversity Plus: SAg Assay (AID 2283095); settings: primary human HUVEC with PBMC;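 also: relative cell number as total protein by SRB absorbance in sub-confluent culture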
# Summary of the method: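 Readout is SRB-stained protein (560 nm) in a primary human HUVEC and PBMC co-culture; sub-confluent cultures are read at 96 h. Activity is fitted bidirectionally using DMSO as baseline.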
# [8] = target: human Tropomyosin Receptor Kinase A (TRKA), NTRK1 (gene 4914) (UniProt P04629); assay: NVS_ENZ_hTrkA: NovaScreen (NVS) Enzymatic Assay for human Tropomyosin Receptor Kinase A (TRKA) (AID 2283224; active = hit-call score of the fitted dose curve at least 0.9, where 1 is the maximum)
# Summary of the method: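 Recombinant human TrkA activity read after 1 h by fluorescence with electrophoretic mobility shift separating substrate and product. Primary screen in duplicate at 25 uM; actives were rerun in concentration-response up to 50 uM. Loss of signal versus DMSO.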
# [9] = target: chimpanzee Androgen Receptor (AR), AR (gene 747460) (UniProt O97775); assay: NVS_NR_cAR: NovaScreen (NVS) Nuclear Receptor Binding Assay for chimpanzee Androgen Receptor (AR) (AID 2283346; active = hit-call score of the fitted dose curve at least 0.9, where 1 is the maximum;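 also: radioligand displacement from AR measured by scintillation counting in a cell-free assay; a loss of bound radioligand signal versus DMSO counts as binding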)
# Summary of the method: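 Radioligand binding to chimpanzee AR expressed in Sf9/Sf21 cells, cell-free, measured 72 h after dosing by lysate-based scintillation counting. Loss of signal vs DMSO; initial duplicate screen at 25 uM, actives retested in concentration series.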
# [10] = BSK_CASM3C_SRB: Viability Assessment in the BioMAP Diversity Plus: CASM3C Assay (AID 2283050); settings: primary human coronary artery smooth muscle cells;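 also: cells exposed to compound for 24 h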
# CYP3A5 (gene 1577) = assay: LTEA_HepaRG_CYP3A5: Life Technologies and Expression Analysis (LTEA) Assay for CYP3A5 using HepaRG (AID 2283493); settings: actives raise or lower the signal; mRNA level, 48 h
# Summary of the method: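 mRNA induction or loss of CYP3A5 assessed in HepaRG after 48 h dosing, 100 uM top concentration, duplicate wells; TaqMan qRT-PCR with ACTB, GAPDH, POLR2A normalization; 0.5% DMSO as negative control.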
# [11] = read-out: Glutamate-cysteine ligase catalytic (GCLC), GCLC (gene 2729); assay: LTEA_HepaRG_GCLC: Life Technologies and Expression Analysis (LTEA) Assay for Glutamate-cysteine ligase catalytic (GCLC) using HepaRG (AID 2283498); settings: actives raise or lower the signal; mRNA level, 48 h
# Summary of the method: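 Differentiated HepaRG cells exposed 48 h in serum-free induction medium, eight-point half-log series topping at 100 uM in 0.5% DMSO, duplicates. GCLC mRNA by qRT-PCR normalized to ACTB, GAPDH and POLR2A, fitted bidirectionally versus DMSO.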
# [12] = read-out: Heat shock 70 kDa protein 1 (HSPA1A), gene 3303; assay: LTEA_HepaRG_HSPA1A: Life Technologies and Expression Analysis (LTEA) Assay for Heat shock 70 kDa protein 1 (HSPA1A) using HepaRG (AID 2283502); settings: actives raise or lower the signal; mRNA level, 48 h
# Summary of the method: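 HSPA1A induction in human HepaRG liver cells is measured after 48 h of chemical treatment (100 uM maximum, 0.5% DMSO vehicle). Expression comes from qRT-PCR normalized to endogenous controls.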
# [13] = read-out: NAD(P)H dehydrogenase [quinone] 1 (NQO1), NQO1 (gene 1728); assay: LTEA_HepaRG_NQO1: Life Technologies and Expression Analysis (LTEA) Assay for NAD(P)H dehydrogenase [quinone] 1 (NQO1) using HepaRG (AID 2283526); settings: actives raise or lower the signal; mRNA level, 48 h
# Summary of the method: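 Human HepaRG hepatic cells received chemicals for 48 h in serum-free induction medium with 0.5% DMSO, up to 100 uM. Expression was assessed by TaqMan qRT-PCR against housekeeping controls and fitted bidirectionally against DMSO.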
# [14] = read-out: solute carrier (SLCO1B1), SLCO1B1 (gene 10599); assay: LTEA_HepaRG_SLCO1B1: Life Technologies and Expression Analysis (LTEA) Assay for solute carrier (SLCO1B1) using HepaRG (AID 2283530); settings: actives raise or lower the signal; mRNA level, 48 h
# Summary of the method: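 SLCO1B1 transcript read by qRT-PCR (Fluidigm arrays), normalized to three housekeeping genes, after 48 h chemical exposure of HepaRG cells; bidirectional concentration-response fitting versus 0.5% DMSO baseline. Eight-point half-log series, maximum 100 uM.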
# [15] = read-out: Interleukin-1 alpha (IL1a), IL1A (gene 3552); assay: BSK_KF3CT_IL1a: BioMAP Diversity Plus: KF3CT Assay for Interleukin-1 alpha (IL1a) Biomarker Activity (AID 2283070); settings: actives raise or lower the signal; primary human keratinocytes with fibroblasts
# Summary of the method: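 Primary human keratinocyte plus foreskin fibroblast co-culture, dosed and measured at 24 h in 96-well plates. IL-1a level quantified by ELISA; bidirectional fit relative to DMSO.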
# [16] = read-out: Transforming growth factor beta 1 (TGFb1), TGFB1 (gene 7040); assay: BSK_KF3CT_TGFb1: BioMAP Diversity Plus: KF3CT Assay for Transforming growth factor beta 1 (TGFb1) Biomarker Activity (AID 2283072); settings: actives raise or lower the signal; primary human keratinocytes with fibroblasts
# Summary of the method: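 Signal changes in either direction, relative to DMSO, define activity here. TGF-b1 is read by ELISA from a human keratinocyte-fibroblast co-culture 24 h post-dose.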
# [17] = read-out: urokinase plasminogen activator (uPA), PLAU (gene 5328); assay: BSK_KF3CT_uPA: BioMAP Diversity Plus: KF3CT Assay for urokinase plasminogen activator (uPA) Biomarker Activity (AID 2283075); settings: actives raise or lower the signal; primary human keratinocytes with fibroblasts
# Summary of the method: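 Primary human keratinocyte/foreskin fibroblast co-culture exposed to chemical; uPA measured by ELISA at 24 h. Bidirectional fit versus DMSO, with parallel SRB total-protein staining for cytotoxicity.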
# [18] = read-out: Monocyte Chemoattractant Protein-1 (MCP1), CCL2 (gene 6347); assay: BSK_SAg_MCP1: BioMAP Diversity Plus: SAg Assay for Monocyte Chemoattractant Protein-1 (MCP1) Biomarker Activity (AID 2283090); settings: actives raise or lower the signal; primary human HUVEC with PBMC
# Summary of the method: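 MCP-1 levels in the endothelial–PBMC SAg co-culture were quantified by ELISA at 24 h post-dosing; both increases and decreases versus DMSO scored. Cytotoxicity monitored by SRB total protein in parallel cultures.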
# [19] = target: human CYP2A6, CYP2A6 (gene 1548) (UniProt P11509); assay: NVS_ADME_hCYP2A6: NovaScreen (NVS) CYP450-related Enzyme Activity (ADME) Assay for human CYP2A6 (AID 2283099; active = hit-call score of the fitted dose curve at least 0.9, where 1 is the maximum)
# Summary of the method: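 Insect-cell-expressed human CYP2A6 enzyme activity measured by fluorescence intensity 0.5 hour post-dosing. Compounds screened at 10 uM in duplicate, then hits tested singly in concentration series (max 20 uM); acetonitrile baseline.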
# [20] = TOX21_p53_BLA_p3_viability: Viability Assessment in the Tox21 HCT-116 p53 Agonism Beta-lactamase Assay, Phase 3 (AID 2283593; active = hit-call score of the fitted dose curve at least 0.9, where 1 is the maximum;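 also: cells exposed to compound for 16 h before reading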)
# Summary of the method: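 HCT116 cells, 4000/well, dosed 5 h after plating by pin transfer (217-fold dilution from DMSO stock) and incubated 16 h at 37C, 5% CO2. Viability read as ATP luminescence with CellTiter-Glo after 30 min at room temperature.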
# [21] = read-out: xenobiotic metabolism (CYP1A2), CYP1A2 (gene 1544); assay: CLD_CYP1A2_48hr: CellzDirect (CLD) Gene Expression Assay for xenobiotic metabolism (CYP1A2) at 48 hours (AID 2283703; active = hit-call score of the fitted dose curve at least 0.9, where 1 is the maximum)
# Summary of the method: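 Primary human hepatocytes from two donor preparations were dosed daily for two days at multiple concentrations in 0.2% DMSO vehicle. CYP1A2 mRNA was measured at 48 hours by chemiluminescent quantitative nuclease protection assay, with gain of signal fitted versus DMSO and cytotoxicity annotated from morphology.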
# [22] = CCTE_Shafer_MEA_dev_correlation_coefficient_mean: CCTE's Neural Network Formation Assay for Mean Correlation Coefficient, Shafer Lab (AID 2284093);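 also: well mean pairwise spike train correlation integrated as AUC over recording days 5 to 12; potency fitted for loss of correlation relative to DMSO vehicle wells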
# Summary of the method: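 Extracellular firing from rat cortical networks on 48-well MEAs, DMSO-referenced, negative fitting direction. Compound present from plating to DIV12; mean pairwise correlation per well integrated over DIV5–12 recordings by trapezoidal AUC.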
# Chain of UniProt O97775 (O97775 whole entry, looked up): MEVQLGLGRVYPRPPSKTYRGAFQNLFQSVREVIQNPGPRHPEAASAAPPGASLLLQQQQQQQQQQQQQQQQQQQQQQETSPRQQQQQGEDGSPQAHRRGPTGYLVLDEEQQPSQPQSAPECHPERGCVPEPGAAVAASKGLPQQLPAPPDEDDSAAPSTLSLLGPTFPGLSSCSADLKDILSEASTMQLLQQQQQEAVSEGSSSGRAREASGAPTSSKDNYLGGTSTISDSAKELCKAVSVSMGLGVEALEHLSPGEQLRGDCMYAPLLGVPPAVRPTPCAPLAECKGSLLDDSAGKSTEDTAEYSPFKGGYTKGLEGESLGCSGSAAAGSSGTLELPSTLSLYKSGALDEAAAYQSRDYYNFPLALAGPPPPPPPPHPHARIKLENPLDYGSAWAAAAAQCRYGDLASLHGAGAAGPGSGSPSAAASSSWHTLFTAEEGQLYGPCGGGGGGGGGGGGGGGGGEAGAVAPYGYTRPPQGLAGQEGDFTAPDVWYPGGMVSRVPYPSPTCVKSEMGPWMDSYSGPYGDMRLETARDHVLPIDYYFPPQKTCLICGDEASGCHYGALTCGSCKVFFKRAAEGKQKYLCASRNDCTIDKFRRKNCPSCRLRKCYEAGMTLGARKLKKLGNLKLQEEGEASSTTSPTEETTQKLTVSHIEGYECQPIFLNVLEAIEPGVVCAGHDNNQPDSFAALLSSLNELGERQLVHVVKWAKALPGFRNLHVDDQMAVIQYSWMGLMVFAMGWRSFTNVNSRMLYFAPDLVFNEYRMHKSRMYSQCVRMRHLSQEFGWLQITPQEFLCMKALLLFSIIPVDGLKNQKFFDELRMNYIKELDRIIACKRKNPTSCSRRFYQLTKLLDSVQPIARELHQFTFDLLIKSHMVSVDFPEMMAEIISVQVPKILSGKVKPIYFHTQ
# Chain of UniProt P04629 (P04629 whole entry, looked up): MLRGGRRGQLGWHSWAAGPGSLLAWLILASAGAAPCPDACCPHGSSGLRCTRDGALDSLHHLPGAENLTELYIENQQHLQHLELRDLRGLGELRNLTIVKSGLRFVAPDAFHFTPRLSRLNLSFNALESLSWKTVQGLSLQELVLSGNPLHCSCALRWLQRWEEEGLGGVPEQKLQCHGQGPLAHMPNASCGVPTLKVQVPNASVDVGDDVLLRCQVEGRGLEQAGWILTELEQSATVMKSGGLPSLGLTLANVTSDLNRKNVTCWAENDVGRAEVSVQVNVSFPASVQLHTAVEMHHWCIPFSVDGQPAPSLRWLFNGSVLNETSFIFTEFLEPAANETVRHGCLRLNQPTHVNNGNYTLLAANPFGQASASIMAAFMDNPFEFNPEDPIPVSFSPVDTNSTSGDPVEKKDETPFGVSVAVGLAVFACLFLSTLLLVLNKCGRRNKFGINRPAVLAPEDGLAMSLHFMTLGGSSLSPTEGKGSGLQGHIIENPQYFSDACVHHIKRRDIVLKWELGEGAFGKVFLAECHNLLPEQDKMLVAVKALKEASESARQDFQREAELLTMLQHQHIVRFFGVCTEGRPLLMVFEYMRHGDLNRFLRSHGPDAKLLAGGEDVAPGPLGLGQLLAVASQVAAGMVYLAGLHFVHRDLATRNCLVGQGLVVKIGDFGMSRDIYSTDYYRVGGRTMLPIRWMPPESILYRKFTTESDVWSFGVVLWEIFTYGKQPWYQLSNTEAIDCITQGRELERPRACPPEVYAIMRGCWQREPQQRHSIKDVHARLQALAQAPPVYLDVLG
# Chain of UniProt P10275 (P10275 whole entry, looked up): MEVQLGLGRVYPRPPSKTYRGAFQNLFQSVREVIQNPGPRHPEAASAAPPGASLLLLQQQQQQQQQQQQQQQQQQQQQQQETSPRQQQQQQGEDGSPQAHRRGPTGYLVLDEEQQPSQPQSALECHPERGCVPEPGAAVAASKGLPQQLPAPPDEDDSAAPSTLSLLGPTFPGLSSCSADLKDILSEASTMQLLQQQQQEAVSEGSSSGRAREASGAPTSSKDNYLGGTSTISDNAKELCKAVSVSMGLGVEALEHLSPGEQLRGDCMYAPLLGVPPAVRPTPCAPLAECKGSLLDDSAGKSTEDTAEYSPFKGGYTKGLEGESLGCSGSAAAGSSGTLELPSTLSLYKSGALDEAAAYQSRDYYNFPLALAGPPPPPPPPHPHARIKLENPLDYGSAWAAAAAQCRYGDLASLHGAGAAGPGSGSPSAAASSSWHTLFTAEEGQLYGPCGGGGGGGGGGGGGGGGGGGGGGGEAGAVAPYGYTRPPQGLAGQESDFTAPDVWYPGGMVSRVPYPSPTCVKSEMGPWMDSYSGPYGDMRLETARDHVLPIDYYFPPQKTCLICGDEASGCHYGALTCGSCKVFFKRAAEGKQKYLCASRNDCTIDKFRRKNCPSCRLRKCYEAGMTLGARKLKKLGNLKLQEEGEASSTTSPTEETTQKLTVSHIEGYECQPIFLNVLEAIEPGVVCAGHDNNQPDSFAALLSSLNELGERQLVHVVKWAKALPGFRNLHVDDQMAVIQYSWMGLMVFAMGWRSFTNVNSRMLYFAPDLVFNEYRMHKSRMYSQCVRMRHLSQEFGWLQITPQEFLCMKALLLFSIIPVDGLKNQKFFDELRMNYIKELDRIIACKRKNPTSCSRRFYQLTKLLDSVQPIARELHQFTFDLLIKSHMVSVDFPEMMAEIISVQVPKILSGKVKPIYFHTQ
# Chain of UniProt P11509 (P11509 whole entry, looked up): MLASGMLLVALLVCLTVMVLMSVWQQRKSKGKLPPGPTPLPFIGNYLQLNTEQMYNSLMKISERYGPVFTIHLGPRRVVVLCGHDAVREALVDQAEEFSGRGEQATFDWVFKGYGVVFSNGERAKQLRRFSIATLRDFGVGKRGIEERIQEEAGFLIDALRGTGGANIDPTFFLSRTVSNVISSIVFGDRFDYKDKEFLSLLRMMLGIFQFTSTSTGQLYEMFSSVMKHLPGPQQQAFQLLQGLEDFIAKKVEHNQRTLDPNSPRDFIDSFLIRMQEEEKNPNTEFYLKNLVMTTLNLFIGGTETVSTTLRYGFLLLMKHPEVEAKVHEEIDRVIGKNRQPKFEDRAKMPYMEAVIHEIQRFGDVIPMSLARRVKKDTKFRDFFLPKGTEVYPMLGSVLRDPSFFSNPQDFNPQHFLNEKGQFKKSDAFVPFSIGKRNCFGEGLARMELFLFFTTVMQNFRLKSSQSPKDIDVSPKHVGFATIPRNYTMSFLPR
smiles,measurement,setting,value
CCC(=O)Nc1ccc(Cl)c(Cl)c1,outcome,[1],inactive
same,outcome,[2],inactive
same,outcome,[3],inactive
Oc1ccc(C(c2ccc(O)cc2)(C(F)(F)F)C(F)(F)F)cc1,AC50,[4],active: 25.7 µM
same,AC50,[5],active: 21.8 µM
same,AC50,[6],active: 19.7 µM
same,AC50,[7],active: 15.3 µM
same,AC50,[8],active: 42.3 µM
same,AC50,[9],active: 21.3 µM
CCOP(=S)(Oc1ccc([N+](=O)[O-])cc1)c1ccccc1 (stereo not drawn),outcome,[10],inactive
same,outcome,CYP3A5 (gene 1577),inactive
same,outcome,[11],inactive
same,AC50,[12],active: 9.92 µM
same,outcome,[13],inactive
same,AC50,[14],active: 9.92 µM
O=C1C2CC=CCC2C(=O)N1SC(Cl)(Cl)Cl (stereo not drawn),AC50,[15],active: 11.2 µM
same,AC50,[16],active: 12.8 µM
same,AC50,[17],active: 13.2 µM
same,outcome,[18],inactive
same,AC50,[19],active: 1.35 µM
same,AC50,[20],active: 11.4 µM
same,outcome,[21],inactive
same,AC50,[22],active: 15.3 µM
